In paper PMC7819943, “Rice protein-binding microarrays: a tool to detect cis-acting elements near promoter regions in rice” one finds binding signal data, which are given here for 54 sequences.

The other results are listed elsewhere or left out.

The target in this assay is T1, OsWOX13 (Oryza sativa, UniProt Q5QMM3 1-267).
T1 sequence: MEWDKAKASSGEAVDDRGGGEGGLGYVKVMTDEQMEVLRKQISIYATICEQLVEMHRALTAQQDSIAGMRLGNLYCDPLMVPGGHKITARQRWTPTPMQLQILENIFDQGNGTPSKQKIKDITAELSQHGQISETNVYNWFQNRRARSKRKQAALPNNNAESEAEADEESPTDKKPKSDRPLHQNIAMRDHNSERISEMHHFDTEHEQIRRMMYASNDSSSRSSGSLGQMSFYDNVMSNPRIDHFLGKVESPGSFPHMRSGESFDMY
Briefly: protein-binding microarray (RPBM); PBS, 2% BSA, 51.3 ng/ul salmon testes DNA, 50 uM zinc acetate, 200 nM TF, 25 C, 1 h; high values mean tight binding. Particulars: protein: recombinant; tags: N-terminal polyhistidine and DsRed monomer fusion (pET32a); label: CyDye5-dUTP incorporated in the synthesized complementary strand; 3' TTTTT single-stranded linker to array surface; dsDNA, one strand shown. Summed up: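 An Axon 4000B scanner gave the binding signal as per-feature fluorescence intensity in arbitrary units. This followed washing of a custom Agilent array that had been incubated for 1 h at 25 °C with 200 nM protein in PBS, 2% BSA, salmon testes DNA and 50 µM zinc acetate. The proteins were transcription factors fused at the N-terminus to polyhistidine and DsRed, expressed in E. coli BL21-CodonPlus and purified on Ni–NTA.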
Turning to “TCTTTTAAAATGGTGAAGTTAATTAGCTGGCTATCATATACGGAGTCACCTAGTGCAG”, the binding signal was 5580 fluorescence intensity (a.u.).
The same measure for “ATTTGTGTTTTGATGATTGATAGTGTTTCGATCCAGAAGACGGAGTCACCTAGTGCAG”: 26600 fluorescence intensity (a.u.).
Regarding “ATAATGGACAATTTAAAACCTATTTACATCTCCAAATAACCGGAGTCACCTAGTGCAG”, the binding signal is 10600 fluorescence intensity (a.u.).
Take “TCTGATTGCATTCCATCTAACAGCCTCATCCTTTTGCTTACGGAGTCACCTAGTGCAG”: the binding signal is 50700 fluorescence intensity (a.u.).
As to “ACCGTAGCATAATTACAACTGACGCGTGAGTTGTCTGGATCGGAGTCACCTAGTGCAG”, the binding signal is 3630 fluorescence intensity (a.u.).
In the case of “CTTCCCCTGATGATTGGCCTGAAATGGATGCTCAGGAATTCGGAGTCACCTAGTGCAG”, the binding signal is 17000 fluorescence intensity (a.u.).
Turning to “GCATATAATTAGCCTCATTGGTGGTCCATGAAGCTCTCCCCGGAGTCACCTAGTGCAG”, the binding signal is 17000 fluorescence intensity (a.u.).
For the sequence “TCTTCTAATATATTGACGTGCAATCCTTTTACGCGTTCGCCGGAGTCACCTAGTGCAG”, the binding signal was 4860 fluorescence intensity (a.u.).
For the sequence “GAGAAATTGGAGCTGATCAACCGGAGAGCGCAAAGCCACCCGGAGTCACCTAGTGCAG”, the binding signal is 3560 fluorescence intensity (a.u.).
The figure for “CAAAATTGGAGATTCTCAGCTGAAAGGCTATCTAGCGGGCCGGAGTCACCTAGTGCAG” is 10200 fluorescence intensity (a.u.); for “AAAATTTAAATGATGGATAAAACCCATATAAATTTAAGATCGGAGTCACCTAGTGCAG” it is 9290 fluorescence intensity (a.u.); for “TCCTACGTGATTGATGTGCTCATTAATTGTACTAGATAGACGGAGTCACCTAGTGCAG” it is 52100 fluorescence intensity (a.u.).
On to “AACATAGACAGGAAATGGGACGGAAACGTCGTCCCAGTCTCGGAGTCACCTAGTGCAG”, for which the binding signal was 4520 fluorescence intensity (a.u.).
Take “CCTGATATGATGGTGAATTCATTGTTGATTCCCGATTCATCGGAGTCACCTAGTGCAG”: the binding signal is 16000 fluorescence intensity (a.u.).
On to “TCTTGACAGCTGGGGACATTTCCTTGGAAGTGATAATGCACGGAGTCACCTAGTGCAG”, for which the binding signal is 19300 fluorescence intensity (a.u.).
Take “TACAATTTAAATTTCTAACTTGTAAAAGTCAAATTCTTGTCGGAGTCACCTAGTGCAG”: the binding signal is 6580 fluorescence intensity (a.u.).
For the sequence “AGTAATTATATGTGTAAGTGGGATGTAAGCGGGGTATAAACGGAGTCACCTAGTGCAG”, the binding signal is 9300 fluorescence intensity (a.u.).
Turning to “ACTAATTATAATATTGTCAATGTTTCATATTTTGGCTTTCCGGAGTCACCTAGTGCAG”, the binding signal is 33700 fluorescence intensity (a.u.).
“ATGATTTGTTTTCTTCCTCACCAAAACAAATCGTGTAATACGGAGTCACCTAGTGCAG”: the binding signal was 12600 fluorescence intensity (a.u.).
The figure for “ACACATGATTAGTCAAATCACGCATATATACGTGCTCGCCCGGAGTCACCTAGTGCAG” is 39500 fluorescence intensity (a.u.); for “GCAGATTGTAATATAATTTCCACGTCTTGATAGTTATGGTCGGAGTCACCTAGTGCAG” it is 28100 fluorescence intensity (a.u.); for “CACATATTTAACAGTCCATCACACAGAGGACTTTATGTAACGGAGTCACCTAGTGCAG” it is 3770 fluorescence intensity (a.u.).
With “TGCCAATTATCCAAAAGTAATAGGACATGGCTGCGACCCTCGGAGTCACCTAGTGCAG”, the binding signal was 23200 fluorescence intensity (a.u.).
For the sequence “ACTGATGAAATATCAAAGTGATTGTCAGACAAAGCGCCATCGGAGTCACCTAGTGCAG”, the binding signal is 25800 fluorescence intensity (a.u.).
Take “GACATATTATTAGATTGACAAAATGTGTTCAATATATATCCGGAGTCACCTAGTGCAG”: the binding signal was 30900 fluorescence intensity (a.u.).
On to “ATTAAATTTAGGATAATCTTTAAACCCTCGAATGTGAAGGCGGAGTCACCTAGTGCAG”, for which the binding signal was 11900 fluorescence intensity (a.u.).
The same measure for “AATAAGATGATTAAGTTGTTAATGCCTTTTCTCCATGATGCGGAGTCACCTAGTGCAG”: 12600 fluorescence intensity (a.u.); for “ATAATGATGATTGTTTCTTTAACACATGGGCTATGTTTATCGGAGTCACCTAGTGCAG”: 47200 fluorescence intensity (a.u.); for “AATAATTAGCAAGAAACAGTGAGATGAATCTCTACTGTGGCGGAGTCACCTAGTGCAG”: 21800 fluorescence intensity (a.u.).
“AAAACATAATTTGGCTGAAATCCCTTTTCTTATCCCATCCCGGAGTCACCTAGTGCAG”: the binding signal was 5960 fluorescence intensity (a.u.).
“GAAATTATAATCTTAACTTATACTTTTACATATTTGTAATCGGAGTCACCTAGTGCAG”: the binding signal was 8370 fluorescence intensity (a.u.).
Turning to “TTTGATGATATGATCCCCTTAAGGGGTGTGCCTTTTATACCGGAGTCACCTAGTGCAG”, the binding signal was 4230 fluorescence intensity (a.u.).
The figure for “CGATAAATTTCAACGAAAATTTGACGAGCCTTTTGGCCAACGGAGTCACCTAGTGCAG” is 6340 fluorescence intensity (a.u.); for “AGCCAATCAGGTTTCAGGAGACACGTCCTAAACCGTGGGACGGAGTCACCTAGTGCAG” it is 11900 fluorescence intensity (a.u.); for “TAATTATTAATTATTTTATTGTAATTTGTTTTATCATGAACGGAGTCACCTAGTGCAG” it is 9740 fluorescence intensity (a.u.).
For “TACTAATTATCTCCTCAGTATCTCATATATGTTTATGAAACGGAGTCACCTAGTGCAG”, the binding signal is 12100 fluorescence intensity (a.u.).
The figure for “GCCTAGTTGATTGAACATTCGTTTTCTTTCAACAAATAAGCGGAGTCACCTAGTGCAG” is 17800 fluorescence intensity (a.u.).
The figure for “CGTTGTGTAACTATAACTCTTATCTTCTAATATATTAACGCGGAGTCACCTAGTGCAG” is 5450 fluorescence intensity (a.u.).
In the case of “ACTAATTAATCCATCATTAGAAAATGTTCACTCTAGCACCCGGAGTCACCTAGTGCAG”, the binding signal is 32400 fluorescence intensity (a.u.).
As to “CATTCTATAAACGTGGTAATTTGCTAGTGGACACCGTGCCCGGAGTCACCTAGTGCAG”, the binding signal was 3610 fluorescence intensity (a.u.).
With “CCACGTGGATTAATTGCTACTGGTTCAGTTGATCAGTTGCCGGAGTCACCTAGTGCAG”, the binding signal was 12500 fluorescence intensity (a.u.).
As to “ATATTATTGATAACAAATCACGTGTTACTGATATAAATCACGGAGTCACCTAGTGCAG”, the binding signal is 11300 fluorescence intensity (a.u.).
As to “GGTATATTGATCTGAATCATCTGGTACTATCAATTGTAGGCGGAGTCACCTAGTGCAG”, the binding signal is 6430 fluorescence intensity (a.u.).
Regarding “CATCATCAATTGACAGCCGTTGGATCACTTGATTACATTGCGGAGTCACCTAGTGCAG”, the binding signal was 25000 fluorescence intensity (a.u.).
On to “TAATTAAAACTTAATTAATCACACATTATTACCACTCCATCGGAGTCACCTAGTGCAG”, for which the binding signal is 18800 fluorescence intensity (a.u.).
On to “ATTTGTAATTTGTATCTATATATATTTGCAATGCTTAAGCCGGAGTCACCTAGTGCAG”, for which the binding signal was 15600 fluorescence intensity (a.u.).
Turning to “TTCATTAATCTCCCGGTGATGGATGAACGGGGAAAAGGGCCGGAGTCACCTAGTGCAG”, the binding signal is 4280 fluorescence intensity (a.u.).
In the case of “TTGGATTAACACATGGATTAGCGCTTGCACCCCGTCGTCGCGGAGTCACCTAGTGCAG”, the binding signal is 7320 fluorescence intensity (a.u.).
Turning to “GTATACCTTTTAATTTGTGCGAAACTATATAAATGAGGCGCGGAGTCACCTAGTGCAG”, the binding signal was 3310 fluorescence intensity (a.u.).
The figure for “AACAATTGATTAGACCAGAACCAGGAGATTCTAATTTCTACGGAGTCACCTAGTGCAG” is 27300 fluorescence intensity (a.u.); for “ACTATTGATGGAAGCAAAACAGCTCAAAGTCAAAACCGATCGGAGTCACCTAGTGCAG” it is 4150 fluorescence intensity (a.u.); for “CTTGATTAGAAGTTAACCGCAACTCTAGAAAATCATTGTTCGGAGTCACCTAGTGCAG” it is 40800 fluorescence intensity (a.u.).
Regarding “CTAATACTTAATTAATCACGCGCTAATGGACCGTTTCGTTCGGAGTCACCTAGTGCAG”, the binding signal was 20400 fluorescence intensity (a.u.).
Consider “GGAGTCGGATACATAATTGGATCGCGGATCGACTTGCCATCGGAGTCACCTAGTGCAG”, for which the binding signal is 4760 fluorescence intensity (a.u.).
